Source: the supplement of paper PMC7826260
Some of the results follow. Cleavage of a single-stranded DNA pool by Rep nickase domains was read by sequencing (1 h at 37 °C, 3 µM enzyme); the outer parts of the 90-letter strands are left off. Numbers give uncut DNA relative to the enzyme-free pool, as log2; more negative means more cut, near 0 not cut, and no call is made. Counts are relative to all reads, so uncut sequences can rise above 0 when many others are cut.

Assays:
Assay in all cases: uncleaved DNA left, log2 of reads against the no-enzyme library (log2 ratio); higher = less cleavage (more negative = more Rep cleavage of the k-mer); sequences stand for … in CTCGTCCG…ACCGGAGA
[1] = system: T1, Rep nickase domain of Muscovy duck circovirus
T1 sequence (Rep 1-111, printed without the tag): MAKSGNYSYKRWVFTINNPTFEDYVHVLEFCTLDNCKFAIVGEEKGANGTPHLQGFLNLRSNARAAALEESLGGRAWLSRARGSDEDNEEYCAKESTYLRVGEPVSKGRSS
Description: (§1)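 A pool of 90-nt single-stranded DNAs with seven random bases just before the constant AC of the nick site (name = the seven bases) was cut by 3 µM recombinant His6-SUMO-tagged Rep nickase domain (300 nM DNA, 50 mM HEPES pH 8.0, 50 mM NaCl, 1 mM MnCl2, 1 h, 37 °C, three replicates). Uncut DNA was amplified and sequenced.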

[2] = system: T2, Rep nickase domain of banana bunchy top virus
T2 sequence (Rep 1-94, printed without the tag): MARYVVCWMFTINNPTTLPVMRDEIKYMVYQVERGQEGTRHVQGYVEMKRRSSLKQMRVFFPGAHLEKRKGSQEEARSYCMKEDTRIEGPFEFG
Description: as §1

[3] = system: T3, Rep nickase domain of cabbage leaf curl virus
T3 sequence (Rep 1-116, printed without the tag): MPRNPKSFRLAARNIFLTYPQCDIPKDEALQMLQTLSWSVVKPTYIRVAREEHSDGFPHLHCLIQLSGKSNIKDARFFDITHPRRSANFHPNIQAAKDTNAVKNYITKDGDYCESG
Description: as §1

[4] = system: T4, Rep nickase domain of chickpea chlorotic dwarf virus
T4 sequence (Rep 1-124, printed without the tag): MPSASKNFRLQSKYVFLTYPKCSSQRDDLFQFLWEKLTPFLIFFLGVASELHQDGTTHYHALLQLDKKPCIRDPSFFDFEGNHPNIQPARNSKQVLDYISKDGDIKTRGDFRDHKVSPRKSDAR
Description: as §1

[5] = system: T5, Rep nickase domain of faba bean necrotic yellows virus
T5 sequence (Rep 1-98, printed without the tag): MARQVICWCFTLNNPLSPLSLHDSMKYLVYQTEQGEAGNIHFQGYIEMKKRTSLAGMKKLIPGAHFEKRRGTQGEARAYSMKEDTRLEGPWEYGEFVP
Description: as §1

[6] = system: T6, Rep nickase domain of maize striate mosaic virus
T6 sequence (Rep 1-117, printed without the tag): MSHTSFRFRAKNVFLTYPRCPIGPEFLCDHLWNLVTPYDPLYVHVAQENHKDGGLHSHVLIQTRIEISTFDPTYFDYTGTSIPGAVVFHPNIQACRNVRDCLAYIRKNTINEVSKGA
Description: as §1

[7] = system: T7, Rep nickase domain of porcine circovirus 2
T7 sequence (Rep 2-116, printed without the tag): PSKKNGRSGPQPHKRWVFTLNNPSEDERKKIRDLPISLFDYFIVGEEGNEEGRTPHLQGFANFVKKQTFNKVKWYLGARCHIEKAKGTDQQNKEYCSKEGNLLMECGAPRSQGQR
Description: as §1

[8] = system: T8, Rep nickase domain of tomato golden mosaic virus
T8 sequence (Rep 1-124, printed without the tag): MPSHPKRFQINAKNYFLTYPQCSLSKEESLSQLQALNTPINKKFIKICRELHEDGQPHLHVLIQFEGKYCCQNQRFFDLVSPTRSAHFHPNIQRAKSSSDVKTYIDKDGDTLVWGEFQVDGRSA
Description: as §1

[9] = system: T9, Rep nickase domain of tomato yellow leaf curl virus
T9 sequence (Rep 1-136, printed without the tag): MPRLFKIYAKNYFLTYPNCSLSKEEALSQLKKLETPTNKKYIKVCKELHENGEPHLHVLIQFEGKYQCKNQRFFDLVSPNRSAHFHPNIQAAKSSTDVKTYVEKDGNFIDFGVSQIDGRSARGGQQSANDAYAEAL
Description: as §1

[10] = system: T10, Rep nickase domain of wheat dwarf virus
T10 sequence (Rep 1-137, printed without the tag): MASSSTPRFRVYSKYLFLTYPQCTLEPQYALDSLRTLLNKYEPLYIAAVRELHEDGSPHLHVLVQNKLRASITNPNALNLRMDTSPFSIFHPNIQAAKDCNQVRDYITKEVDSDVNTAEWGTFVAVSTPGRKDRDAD
Description: as §1

| Sequence | uncleaved DNA left (log2) [1] | uncleaved DNA left (log2) [2] | uncleaved DNA left (log2) [3] | uncleaved DNA left (log2) [4] | uncleaved DNA left (log2) [5] | uncleaved DNA left (log2) [6] | uncleaved DNA left (log2) [7] | uncleaved DNA left (log2) [8] | uncleaved DNA left (log2) [9] | uncleaved DNA left (log2) [10] |
| --- | --- | --- | --- | --- | --- | --- | --- | --- | --- | --- |
| GGCTGTT | -1.03 | 0.117 | 0.163 | 0.54 | 0.0924 | 1.68 | -2.59 | 0.0254 | 0.137 | -0.0767 |
| CGCTAAG | 0.0243 | 0.016 | -0.723 | -0.555 | -0.00824 | -0.894 | 0.107 | 0.0285 | -0.0553 | -0.147 |
| CCTGTAA | 0.257 | 0.168 | 0.0956 | -0.451 | 0.144 | -0.445 | 0.0632 | 0.0738 | 0.185 | 0.212 |
| ATTTCTG | -0.0546 | 0.000143 | -0.073 | 0.161 | 0.0067 | 0.0509 | 0.102 | -0.000564 | 0.0108 | 0.0369 |
| ATTACAA | -0.0609 | -0.0417 | -0.114 | -1.72 | -0.0321 | -0.636 | -0.132 | -0.0227 | -0.0175 | 0.0674 |
| TGTCACG | 0.0113 | -0.0463 | -0.789 | -0.559 | 0.134 | -1.13 | 0.191 | -0.0665 | 0.011 | 0.000405 |
| AGGGGTT | 0.144 | 0.157 | 0.507 | 1.37 | 0.16 | 1.86 | 0.179 | 0.259 | -0.0863 | 0.123 |
| AGCCGGC | -0.182 | -0.137 | -0.136 | 0.127 | -0.0501 | -0.22 | -0.0619 | 0.0493 | -0.115 | -0.0458 |
| GCTAATT | -0.0907 | -0.0297 | -0.00258 | -1.03 | -0.0609 | 0.166 | -0.358 | -0.0709 | -0.0408 | -0.00524 |
| CCGAGTC | 0.104 | -0.0783 | 0.259 | 0.271 | -0.147 | -0.12 | -0.187 | -0.0837 | -0.0783 | 0.0369 |
| ACGCCGG | -0.0069 | 0.0252 | -0.238 | -0.0192 | 0.0505 | -0.568 | 0.134 | 0.0442 | -0.0128 | -0.0118 |
| AGTAACG | 0.0544 | 0.0553 | -0.725 | -0.789 | 0.0143 | -1.01 | 0.132 | 0.0422 | 0.0565 | -0.0262 |
| AGGTATA | -0.0364 | -0.0366 | 0.0516 | -0.275 | -0.033 | 0.627 | -0.168 | 0.0285 | -0.0024 | 0.0445 |
| GTCCGAA | 0.0695 | 0.2 | 0.479 | 0.977 | 0.123 | 1.66 | 0.107 | 0.126 | 0.201 | 0.255 |
| TCCGAAC | -0.205 | -0.168 | 0.129 | 0.0301 | -0.135 | -0.221 | -0.196 | -0.0757 | -0.15 | -0.187 |
| CAATCTT | -3.9 | -1.32 | -4.15 | -3.75 | -0.185 | -2.78 | -3.84 | -3.73 | -0.463 | -3.72 |
| TCGCGTT | -0.0422 | -0.108 | -0.74 | -1.22 | -0.128 | -1.21 | -0.515 | -0.27 | -0.121 | -0.116 |
| ACGTGCC | 0.07 | 0.012 | -0.192 | -0.0819 | -0.0208 | -0.556 | 0.0842 | 0.152 | -0.00844 | -0.0759 |
| CGTGCCG | -0.0701 | -0.201 | -0.832 | -0.478 | -0.0305 | -0.822 | 0.0775 | -0.105 | -0.0902 | -0.192 |
| ATTCTAC | -0.515 | -0.159 | -0.438 | -2.36 | -0.022 | -0.626 | -0.383 | -0.0655 | -0.158 | -0.108 |
| TCCCGAA | -0.117 | -0.00405 | 0.134 | -0.026 | -0.271 | -0.455 | -0.0583 | -0.227 | -0.165 | -0.165 |
| ACTACTA | 0.0423 | 0.0797 | -0.17 | -1.75 | 0.214 | -0.645 | -0.011 | 0.0909 | 0.0701 | 0.0378 |
| GGACTGA | -0.0519 | 0.0522 | 0.505 | 1.54 | -0.117 | 2.09 | 0.187 | 0.156 | -0.0481 | 0.134 |
| TCTCATA | 0.0832 | -0.0351 | 0.0462 | -0.925 | -0.0777 | -0.36 | 0.000317 | -0.0403 | -0.0982 | 0.00233 |
| CGGACAG | 0.0723 | 0.185 | 0.908 | 2.01 | 0.196 | 2.26 | 0.248 | 0.112 | 0.176 | 0.262 |
| GCCACCA | 0.0127 | 0.0339 | 0.096 | -0.31 | 0.0846 | 0.215 | -0.186 | 0.0335 | 0.0984 | 0.0858 |
| AAAGGGG | 0.13 | 0.0931 | 0.365 | 0.996 | 0.0866 | 0.684 | 0.357 | 0.217 | 0.073 | 0.201 |
| AGCGTGG | -0.058 | -0.000825 | -0.0859 | 0.442 | -0.0938 | 1.04 | -0.00491 | -0.0787 | -0.123 | -0.09 |
| CTAGGCT | 0.0556 | -0.00242 | -0.0576 | -0.379 | -0.019 | -0.168 | -0.0313 | -0.00965 | 0.0281 | -0.0352 |
| CTCGTAA | 0.0716 | -0.013 | -0.0547 | -0.338 | 0.245 | -0.613 | 0.143 | 0.0691 | 0.123 | 0.105 |
